# Measurements: the supplement of paper PMC12217912
# This is one part of the list. Sequences were assembled here from the parent chain. Inactive controls read about 0.05.
# B1: TEV protease; numbered along this chain (parent)
# chain: MGESLFKGPRDYNPISSSICHLTNESDGHTTSLYGIGFGPFIITNKHLFRRNNGTLVVQSLHGVFKVKDTTTLQQHLVDGRDMIIIRMPKDFPPFPQKLKFREPQREERICLVTTNFQTKSMSSMVSDTSCTFPSGDGIFWKHWIQTKDGQCGSPLVSTRDGFIVGIHSASNFTNTNNYFTSVPKNFMELLTNQEAQQWVSGWRLNADSVLWGGHKVFMVKPEEPFQPVKEATQL
# Variants of: B1
# Experiment: raw area under fraction-flipped curve 0-4 h after induction (AUC4h, not background-subtracted), DNA-recorder readout of cleavage of the substrate (dimensionless); higher = more cleavage of the substrate by the protease variant
# Conditions: temperature: 34 °C; time window: 0-4 h after rhamnose induction
# 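Note: Bxb1 expression induced with 0.2% (w/v) L-rhamnose at OD600 near 0.5, cultures sampled hourly, flipped fraction per protease–substrate barcode pair counted by paired-end Illumina sequencing.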
Variant,area with substrate EHLYFQS,area with substrate EILYFQS,area with substrate EKLYFQS,area with substrate ELLYFQS,area with substrate EPLYFQS,area with substrate EQLYFQS,area with substrate ERLYFQS,area with substrate EVLYFQS,area with substrate EWLYFQS,area with substrate EMLYFQS
C131L,0.126,–,–,–,–,–,–,–,–,–
K7T,–,0.0776,0.0892,0.0995,0.105,0.0864,0.0828,0.0781,0.0565,–
I15R,–,–,0.0674,–,0.0516,–,–,0.0617,0.0696,0.0621
T159W,–,–,0.12,–,–,–,–,–,0.0958,–
I139K,–,–,–,0.0941,0.123,0.119,0.113,–,0.0933,–
G2W,–,–,–,–,–,0.134,–,0.147,–,0.14
F173K,–,–,–,–,–,–,–,0.0976,–,0.0816
V58A,–,–,–,–,–,–,–,–,0.0929,–

# Same assay, conditions: temperature: 34 °C; time window: 0-4 h after rhamnose induction
Variant,area with substrate ESLYFQS,area with substrate ETLYFQS,area with substrate EYLYFQS
I15R,0.071,0.0656,–
T159W,0.101,–,–
I139K,0.177,–,–
G2W,0.148,–,–
F173K,0.0746,–,–
Q97V,–,–,0.0899
